Data published in the supplement of paper PMC11417369.
Some of the results follow.

What follows are sequences tested on PfSIP2 AP2 domain 1 (GST-tagged) (assay: gcPBM binding intensity (ln(normalized median fluorescence intensity)); higher = stronger DNA binding).
Outline: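 Using an Agilent 4 × 180k array, primer-extended double-stranded 36-bp intergenic genomic probes and negative controls were exposed for 1 h to GST-fused P. falciparum DNA-binding domains expressed in E. coli. Binding was carried out in 1× PBS with 1% milk, 0.2 mg/ml BSA, 0.5% salmon testes DNA and 0.03% Triton X-100, and protein was detected with Alexa488 anti-GST antibody and a 488 nm scan. Binding intensity is the highest Masliner-normalised natural-log median intensity across replicate spots of either probe orientation.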

Row | Sequence | gcPBM binding intensity (ln)
1 | TATTTTACATCTTCTCACATTTTATCACTTTTTAAA [CACACA_negctrl_site330] | 7.15
2 | TTTTTTTTATGGTACACACACGCGTATGGTTGCACG [CACACA_site1877] | 7.49
3 | TTATTTTTGTTCATAGTGCATAGAATTTATACATAT | 8.42
4 | ATAGACAGCGCACAAACACACAAACACAGACCCCCA [CACACA_site4409] | 7.81
5 | ATTTATTTATTGGCACGTACAAATTTGTGTTTTCCA [XGTACX_site6978] | 7.23
6 | TTGTAAATTTCTGGTTATATATTTTATGTATATGTT [CACACA_negctrl_site1443] | 6.88
7 | TTTTTTTCTTTTCAAACACACAATTGGTATATATCA [CACACA_site7542] | 6.85
8 | AAAGAAATGAAATATACACACATACATAAATACATA [CACACA_site6081] | 6.88
9 | AATTATATATTATAATGTACATATATATAACTATAC [XGTACX_site1865] | 7.13
10 | ATAAAGGAAATTACAAGTACAAATAAGATAAAATAA [XGTACX_site4514] | 7.03
11 | ATATATTTAAACTACACACGCATATCTTAGAAATAA [CACACA_site1272] | 7.03
12 | TATAAAAAAAGAGGAGGGATGGTATACTTGTGGTTT [TGCATGCA_negctrl_site49] | 6.94
13 | ATGGATTATACGTGCACACATATATACAAATAAATA [CACACA_site640] | 10.5
14 | ACCATTTGTAGGTAAACACACATTATTATTAATATC [CACACA_site2635] | 7.12
15 | TAAAATGCAATCTGAACACACATATTTTTTTAATAT [CACACA_site6922] | 6.8
16 | TACATCATACGAACAGTGCATATTATTATTGTTCTG | 8.05
17 | TATATATCATATGATACATGCAACAAAATGCATAAT [TGCATGCA_site205] | 7.16
18 | TACTTACCAAAATACACACACACACTAGATATATAA [CACACA_site5096] | 7.2
19 | ATGTATATTACTCATTGTACTTATATTTTCTTATTA [XGTACX_site8897] | 6.98
20 | GTATTTATAAATTATAGTACTTTGCGTATCATATAT [XGTACX_site7358] | 7.19
21 | ATTTTATATCTGGATAGTACTTTAATATTTCAAATG [XGTACX_site7304] | 7.04
22 | GGATATTCATTAACCACACACACAAAAAAAATAAAA [CACACA_site3800] | 7.18
23 | TTATATTATACATACACACCCATATAATATGTTTTT [CACACA_site4636] | 7.06

Row | Sequence | gcPBM binding intensity (ln)
24 | TCTTATGAATATCCCCGTACACATATATTTCTTATA [XGTACX_site6877] | 7.22
25 | TTGTTTTTGTTCTTGGGTACTTAAATTATAAATGAT [XGTACX_site113] | 7.35
26 | AGCTACACACCACAATGTACATAAATATATATGTGA [XGTACX_site1483] | 7.03
27 | AGAATATTTAATTCAACACACATACATATTTATTAA [CACACA_site5318] | 6.8
28 | TATTGTATATACTATACACACACATACATACATACA [CACACA_site8172] | 8.03
29 | CAAATATACATATGTAGTACATGTTGTAGATAATTT [XGTACX_site2790] | 7.15
30 | ATATATTTATATAAATGTACATACAGCACATTTATA [XGTACX_site4725] | 7.05
31 | GGATAATATATTAGAACACACATATAGATGTAAAAA [CACACA_site6229] | 6.91
32 | GAAGCCCTATGAAAAGTGCGGTTCATGAACAAAGAA [GTGCAC_site9828] | 7.54
33 | TACTTTATATAAAGATCAAAAAATAAATAATTATAA [TGCATGCA_negctrl_site446] | 6.84
34 | ATAAGGAAGGGATGCACACAAAAGGGTACATAAGAA [CACACA_site4006] | 7.5
35 | TTTGAATCCTTATATACACACATTATAAAATATTAT [CACACA_site6406] | 7.14
36 | TATTTGTAAATCGATACACACATATAGATTAATATA [CACACA_site6237] | 6.81
37 | GGTTCATTAAAGTGTACACATAAATACCGTAACATT [CACACA_site6002] | 7.43
38 | CTAAGGTATGATTAATCACACACATAAATATATATA [CACACA_site8847] | 7.38
39 | AGAATAAGAATTATTAGTACTTATAAATATTATATT [XGTACX_site7228] | 6.89
40 | TAATTTAAAATATATAGTACACACGTGAACACAAAT [XGTACX_site792] | 7.36
41 | CTATTACATTAAATGTGTACATATATATATATATAT [XGTACX_site5233] | 9.28
42 | GTAAATACACATATGTGTACATATATATATATATAT [XGTACX_site3696] | 9.71
43 | GTGGCTACTATATATTGTACGATATTATATATATAC [XGTACX_site8376] | 6.98
44 | TAAAATATCATAGATAGTACATATAACGTTTTATAT [XGTACX_site5666] | 6.99
45 | ATCGAAATTTTAGAATATATATGATGTTACTTAAGT [GTGCAC_negctrl_site611] | 6.93
